Data published in PubChem BioAssay AID445 (National Center for Advancing Translational Sciences (NCATS), 2006).
About 40 (0.04%) of roughly 110,000 compounds were called active. The inconclusive results got no clear call from the source; some entries with a clear call stand among them for comparison. Calls follow the shape of the dose curve; as a rule, active = well fitted curve in the direction sought with a large enough effect in the signal ratio (not every such curve was filed as active); inconclusive = small, poorly fitted or top-dose-only effect, or a change in a side signal; inactive = flat fitted curve, though single readings scatter; the % refers to the signal ratio. A potency beside an inconclusive call is a rough fit, not a confirmed value.

assay: IkB Signaling; conditions: ABC-DLBCL IkBa-CBG/CBR dual luciferase ratio (green luciferase fused to IkBa over red control in OCI-Ly3 lymphoma cells), 4 h; IkBa stabilization activation: at 57.1 µM (top of the series), scaled: untreated 0%, proteasome inhibitor 100% unless noted;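 as to IkBa stabilization activation: 0% = basal untreated cells and 100% = reference inhibitor full response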
Summary of the method: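 Luminescence ratio of IκBα-fused green versus native red beetle luciferase in OCI-Ly3 cells, 4 h post-doxycycline with compound; red signal alone, scaled from basal (0%) to zero light (-100%), flagged nonspecific or cytotoxic effects.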
Potency is read from the fitted curve at half-maximal effect.

Structure (SMILES)	IkBa stabilization activation	Potency
Cc1cccc(NC(=O)CN2C(=O)C(c3ccc(F)cc3)=NC23CCCCCC3)c1	inconclusive: 0.858% [signal inhibitor]	–
COc1ccc(NC(=O)Cn2c(=O)c3ccccc3n3nncc23)c(OC)c1	inactive	–
CC(=O)c1c(C)oc2c1cc(NS(=O)(=O)c1ccc(C(C)(C)C)cc1)c1ccccc12	inconclusive: 14% [signal inhibitor]	–
Cc1ccc(CNC(=O)C(C)n2nc(C)c3sc4ccccc4c3c2=O)cc1 (stereo unspecified)	inconclusive: 6.85% [signal inhibitor]	–
O=C(NCc1ccco1)c1cnn2c(C(F)(F)F)cc(-c3cccs3)nc12	inactive	–
O=C(c1cn(-c2ccccc2)nc1-c1ccc(Cl)s1)N1CCOCC1	inactive	–
Cc1cc(C)c(NC(=O)Cn2c(=O)n(Cc3ccc(C(=O)NCc4ccc5c(c4)OCO5)cc3)c(=O)c3ccccc32)c(C)c1	inactive	–
Cc1ccc(CNC(=O)c2ccc(Nc3nc4ccccc4n4nnnc34)cc2)cc1	–	inconclusive: 31.6 µM [signal inhibitor, partial curve]
Cc1ccc(NC(=O)c2oc3c(c2C)-c2[nH]ncc2CC3)c(Cl)c1	inconclusive: -0.785% [signal inhibitor]	–
O=S(=O)(c1ccc(Oc2ccc(S(=O)(=O)N3CCOCC3)cc2)cc1)N1CCOCC1	inactive	–
CC(C)c1ccc(NS(=O)(=O)c2cc(Br)cc3c2N(C(=O)C2CC2)CC3)cc1	inconclusive: 7.17% [signal inhibitor]	–
Cc1ccc(S(=O)(=O)N(CCc2ccccc2)CC(=O)Nc2ccccc2C)cc1	inconclusive: 0.513% [signal inhibitor]	–
Cc1ccc(C(=O)N2CCn3c4c(c5cc(C)ccc53)CCCC42)cc1 (stereo unspecified)	inconclusive: -1.61% [signal inhibitor]	–
COc1ccc(CCNC(=O)c2ccc3c(c2)N(Cc2ccccc2)CCS3)cc1OC	inconclusive: 0.229% [signal inhibitor]	–
Cc1ccc(C2C3CSCC=C3C(C#N)=C(N)C2(C#N)C#N)cc1 (stereo unspecified)	inactive	–
Cc1cc(C)cc(NS(=O)(=O)c2ccc3[nH]cc(C(=O)NCCc4ccccc4)c(=O)c3c2)c1	inconclusive: 0.772% [signal inhibitor]	–
O=C(Cc1cccs1)Nc1nc(-c2ccccc2)cs1	–	inconclusive: 10 µM [signal inhibitor, partial curve]
CCOc1cccc(CC(=O)N2CCc3c([nH]c4ccc(OC)cc34)C2c2ccc(F)cc2)c1OCC (stereo unspecified)	inconclusive: 0.642% [signal inhibitor]	–
CCn1c(C)nc2cc(S(=O)(=O)N3CCCCC3)ccc21	inactive	–
COc1ccccc1N1CCN(C(CNC(=O)C(=O)NCc2cccnc2)c2cccnc2)CC1 (stereo unspecified)	inconclusive: -2.32% [signal inhibitor]	–
CCCCOC(=O)CN1C(=O)c2ccc(C(=O)OCCCC)cc2C1=O	inconclusive: 15.3%	–
COc1cc(OC)cc(-c2nnc(SCC(=O)N3CCCc4ccccc43)o2)c1	inconclusive: 3.66% [signal inhibitor]	–

Structure (SMILES)	IkBa stabilization activation	Potency
Cc1ccc(CCNC(=O)c2ccc(CS(=O)(=O)Cc3cccc(C)c3)o2)cc1	inconclusive: 1.67% [signal inhibitor]	–
COc1ccc(Cn2ccc3nc(C)c(C(=O)N4CCN(c5ccccc5F)CC4)cc3c2=O)cc1	inconclusive: 1.07% [signal inhibitor]	–
Cn1ccc2c(OCC(=O)Nc3ccc([N+](=O)[O-])cc3)cccc2c1=O	inactive	–
CSc1ccc(CNC(=O)CN2C(=O)C3CCCCN3c3ccc(C(=O)N4CCCC4)cc32)cc1 (stereo unspecified)	inactive	–
Oc1c(C(Nc2nc3ccccc3s2)c2ccco2)ccc2cccnc12 (stereo unspecified)	–	inconclusive: 31.6 µM [rising, partial curve]
O[C@@H]1CC[C@H]2Cc3ccccc3N=C21	inactive: -0.947% [at 11.4 µM, scaled: untreated 0%, proteasome inhibitor 100%]	–
COC(=O)c1cc2sc(C)cc2n1CC(=O)Nc1cccc(SC)c1	inconclusive: 0.545% [signal inhibitor]	–
COc1ccc(NC(=O)c2cc(S(=O)(=O)NCCC3=CCCCC3)ccc2F)cc1	inconclusive: 5.61% [signal inhibitor]	–
COc1ccc(-c2nc3cc(C(C)C)ccc3o2)cc1NC(=O)c1ccc(C)c(Cl)c1	–	inconclusive: 10 µM [signal inhibitor, partial curve]
Cc1cccc(S(=O)(=O)c2c(N)n(/N=C/c3ccco3)c3nc4ccccc4nc23)c1	inactive	–
Cc1ccc(OCC(=O)Nc2ccc3nc(SCC(=O)N4CCOCC4)sc3c2)cc1C	inconclusive: 2.32% [signal inhibitor]	–
COc1ccc(-c2cc(C(=O)N3CCCc4ccccc43)no2)cc1OC	–	inconclusive: 15.8 µM [signal inhibitor, partial curve]
O=C1c2ccccc2NC(c2ccc(Cl)cc2Cl)N1O (stereo unspecified)	inconclusive: 10.4% [signal inhibitor]	–
O=c1[nH]nc(Sc2ncnc3sccc23)n1CCc1ccccc1	inconclusive: 2.91% [signal inhibitor]	–
COc1cccc(C(=O)CSc2nnc(COc3cccc4cccnc34)o2)c1	inconclusive: 2.9% [signal inhibitor]	–
Cc1ccccc1NC(=O)Cn1c(=O)n(CCC(=O)NCc2ccc3c(c2)OCO3)c(=O)c2sccc21	inactive	–
O=C1CN(C(=O)c2ccc(S(=O)(=O)N3CCCCC3)cc2)C(c2ccc(F)cc2)c2cc(Br)ccc2N1 (stereo unspecified)	inconclusive: 4.68% [signal inhibitor]	–
Cc1ccc2oc(-c3cccc(NC(=O)C4CCCO4)c3)nc2c1 (stereo unspecified)	inconclusive: 2.8% [signal inhibitor]	–
Cc1ccccc1C(=O)NC1(C(F)(F)F)N=C(c2ccccc2)N(Cc2ccccc2)C1=O (stereo unspecified)	inactive	–
COc1cccc(-c2cc(C(F)(F)F)n3nc(C)c(-c4ccccc4)c3n2)c1	inactive	–
COC(=O)c1ccc(Oc2nc3c(c(=O)n(C)c(=O)n3C)n2C(C)C)cc1	inactive	–
O=C(COc1ccccc1[N+](=O)[O-])Nc1cc(-c2nc3cc(Cl)ccc3o2)ccc1Cl	inconclusive: 11.9% [signal inhibitor]	–

Structure (SMILES)	IkBa stabilization activation	Potency
CS(=O)(=O)N1CCC2(CC1)CN(c1cccc(-c3ccccc3)c1)C2	inactive: -1.75% [at 11.4 µM, scaled: untreated 0%, proteasome inhibitor 100%]	–
COc1cc2nc(N3CCN(C(=O)OCc4ccccc4)[C@H](C(=O)NC(C)(C)C)C3)nc(N)c2cc1OC	–	inconclusive: 7.94 µM [signal inhibitor, partial curve]
Cc1cc(C)c(S(=O)(=O)NCc2csc(-c3ccccc3)n2)c(C)c1	inconclusive: -0.6% [signal inhibitor]	–
CCSc1nnc2c(n1)OC(c1sccc1C)N(C(C)=O)c1ccccc1-2 (stereo unspecified)	inconclusive: 0.493% [signal inhibitor]	–
COC(=O)c1c(C)oc2ccc(N(C(=O)Oc3ccccc3)S(=O)(=O)c3ccc(C(C)(C)C)cc3)cc12	inconclusive: 3.75% [signal inhibitor]	–
Cc1c(C)n(C)c2ccc(C(=O)NCCc3ccc(Cl)cc3)cc12	inconclusive: 1.05% [signal inhibitor]	–
O=c1oc(-c2cccs2)nc2sc3c(c12)CCCCC3	–	inconclusive: 0.126 µM [signal inhibitor, full curve]
Cc1c(C(=O)Nc2ccc(F)c(F)c2)oc2ccc(S(=O)(=O)N3CCC4(CC3)OCCO4)cc12	inconclusive: 2.18% [signal inhibitor]	–
O=C(Nc1c(-c2ccc(F)cc2)nc2ccccn12)c1cccc(F)c1	inconclusive: 4.6% [signal inhibitor]	–
Cc1ccc(C2C=C(c3ccc(F)cc3)Nc3nc(CCCO)nn32)cc1 (stereo unspecified)	inconclusive: 2.2% [signal inhibitor]	–
Cc1cccc(-n2nnc(C(=O)Nc3ccc(F)cc3)c2N)c1	–	inconclusive: 15.8 µM [signal inhibitor, partial curve]
CCOc1ccc(C(=O)c2cn(Cc3ccccc3)c3c(F)cc(F)cc3c2=O)cc1	inactive	–
c1cncc(-c2nccc(NCc3cccs3)n2)c1	inactive: 2.91% [at 11.4 µM, scaled: untreated 0%, proteasome inhibitor 100%]	–
COc1ccc(OC)c(NC(=O)c2cnc(N3CCCC3)nc2C)c1	inconclusive: 0.63% [signal inhibitor]	–
c1nc(N2CCCC2)c2[nH]cnc2n1	inactive	–
O=C(CN1C(=O)CCc2cc(S(=O)(=O)N3CCOCC3)ccc21)NCc1ccccc1Cl	inconclusive: 7.12% [signal inhibitor]	–
O=c1c(-c2cc(F)cc(F)c2)nc2cnc(N3CCNCC3)nc2n1C1CC1	inactive: -4.03% [at 11.4 µM, scaled: untreated 0%, proteasome inhibitor 100%]	–
CCSc1ncc(Cl)c(C(=O)N(Cc2ccccc2)Cc2ccco2)n1	inconclusive: -1.51% [signal inhibitor]	–
CC(=O)c1ccc(N2CCN(C(=O)c3cc4ccc5cccnc5c4[nH]3)CC2)cc1	inconclusive: -6.55% [signal inhibitor]	–
CCc1nn(CC(=O)N2CCN(c3ccc(Cl)cc3)CC2)c(=O)c2cc3occc3n12	inconclusive: 5.81% [signal inhibitor]	–
Cc1ccc(C2CC(C(F)(F)F)n3nc(C(=O)NCc4c(C)nn(C)c4C)c(Cl)c3N2)cc1 (stereo unspecified)	inconclusive: -5.99% [signal inhibitor]	–
O=C(c1cnc(N2CCCCC2)c2ccccc12)N1CCN(c2ccc(Cl)cc2)CC1	inconclusive: 10.4% [signal inhibitor]	–
